Test results reported in PubChem BioAssay AID686979 (National Center for Advancing Translational Sciences (NCATS), 2013).
Several values for one entry are separate records, joined by “and”; a condition that tells them apart may be missing. Equal entries are not always repeated. The campaign covered roughly 420,000 compounds. About 50,000 (12%) were called active. Inconclusive results, whose numbers are uncertain, are shown with a selection of clear calls. The call rests on the fitted dose curve; in most records, active means well fitted inhibition curve with a large enough effect; inconclusive means small, poorly fitted or top-dose-only effect; inactive means flat fitted curve, though single readings scatter. Potencies beside an inconclusive call are fits to weak or partial responses and may not hold up.

Test: qHTS for Inhibitors of human tyrosyl-DNA phosphodiesterase 1 (TDP1): qHTS in cells in presence of CPT; further: nearly all actives have a fitted effect of over 55% in size
Conditions: chicken DT40 Tdp1-/-;hTDP1 cells + 20 nM CPT, ATP luminescence, 48 h; activity change, negative = growth inhibition: at 46.2 µM (top of the series) unless noted
Procedure, shortened: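 Chicken DT40 Tdp1-/- cells stably complemented with human TDP1 were seeded at 400 cells/well in medium containing 20 nM camptothecin, exposed to pin-transferred compounds, and grown at 37 °C for at least 48 hr. Viability was read as ATP luminescence.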
On the % scale 0 is the no-effect control and ±100 the full control effect; potency means the concentration at half of the fitted maximal effect; tags describe the fitted curve by direction and shape.

SMILES	Potency	activity change, negative = growth inhibition
O=[N+]([O-])c1cc([N+](=O)[O-])c(Oc2cccnc2Br)cc1NN1CCCCC1	inconclusive: 14.6 µM [inhibitor, single point]	
CCc1nn2c(=O)cc(COC(=O)c3cccc(NC(=O)c4ccccc4Cl)c3)nc2s1	inconclusive: 4.11 µM [inhibitor, partial curve]	
COc1ccc(-c2cc(-c3cc(C)ccc3O)[nH]n2)cc1	inconclusive: 29.1 µM [inhibitor, single point]	
O=C(COc1ccc(NC(=O)c2ccccc2)cc1)c1ccccc1	inactive	
COc1cccc(CNC(=O)c2c(OC)cc(=O)n3c2CCN(C(=O)C2CC=CCC2)CC3)c1 (centres undefined)	inactive	
O=C(/C=C/c1ccccc1Cl)Nc1ccc2c(c1)C(=O)NC2=O	inactive	
COc1ccccc1C(=O)NNC(=O)CN(C)S(=O)(=O)c1ccc(Cl)cc1	inactive	
O=C(CSc1nc2ccccc2o1)Nc1ccccc1N1CCCCCC1	inconclusive: 29.1 µM [inhibitor, single point]	
Cc1c(-c2ccccc2)n(O)c(-c2ccc(N(C)C)cc2)[n+]1[O-]	inactive	
O=C(CC1C(=O)NCCN1Cc1cccc(F)c1)NCCCOc1cccnc1 (centres undefined)	inconclusive: 29.1 µM [inhibitor, single point]	
O=C(NNc1nc2ccc(Cl)cc2s1)c1cc(-c2cccs2)nc2ccccc12	active: 2.59 µM	
O=C(O)c1cc(N2CCCC2)ccn1	inactive	
CCc1cc(C(=O)Nc2cc(S(=O)(=O)N(C)C)ccc2C)sc1C	active: 14.6 µM	
COc1ccc(N)c2c1C(=O)c1ccccc1C2=O	inconclusive: 29.1 µM [inhibitor, single point]	
CCc1ccc2c(c1)c(=O)c(S(=O)(=O)c1ccc(F)cc1)cn2CC(=O)Nc1ccc(C)cc1C	inconclusive: 7.31 µM [inhibitor, partial curve]	
CC(=O)Nc1ccc(S(=O)(=O)NC(C)C(=O)NCC(c2ccco2)N(C)C)cc1 (centres undefined)	inactive	
CCOC(=O)C1=C(CSc2nc(-c3ccncc3)ccc2C#N)OC(N)=C(C#N)C1c1ccc(OC)cc1 (centres undefined)	inconclusive: 18.4 µM [inhibitor, single point]	
COc1ccc(/C=C(\NC(=O)c2ccc(OC)cc2)C(=O)N2CCCCC2)cc1	inactive	
COc1cc(/C=N/N=C2/NC(=O)C(Cc3ccccc3)S2)ccc1O (centres undefined)	inconclusive: 29.1 µM [inhibitor, single point]	
CC1CCN(CCNC(=O)C2CCCN(S(=O)(=O)c3cccc4nonc34)C2)CC1 (centres undefined)	inconclusive: 18.4 µM [inhibitor, single point]	
NS(=O)(=O)c1ccc(NC(=O)CSc2nc3ccccc3c(=O)n2Cc2ccncc2)cc1	inconclusive: 25.9 µM [inhibitor, partial curve]	
COc1ccc(CNC(=O)c2cnc3sc(N4CCCC4)nn3c2=O)cc1OC	active: 9.2 µM	
CCOC(=O)C1CCCCN1C(=O)c1ccc(-n2cc(NC(=O)c3cccnc3)cn2)cc1 (centres undefined)		inactive: 9.17% [at 9.04 µM]

SMILES	Potency	activity change, negative = growth inhibition
O=C(CSc1c2c(nc3ccc(Cl)cc13)CCCC2)N1CCN(c2cccc(Cl)c2)CC1	active: 16.4 µM	
C[C@@H]1C=C(C(=O)N2CCOCC2)O[C@H](OCc2ccc(CO)cc2)C1	inactive	
O=C(Nc1ccc(S(=O)(=O)N2CCCCC2)cc1)c1ccccc1F	inactive	
CSc1ccc(CN2C(=O)C(C)Oc3c(C(C)=O)cccc32)cc1 (centres undefined)	inconclusive: 29.1 µM [inhibitor, single point]	
CC1CCN(C(=O)c2cccc(S(=O)(=O)N3CCN(c4ccccc4)CC3)c2)CC1	inconclusive: 29.1 µM [inhibitor, single point]	
Cc1cccc(NC(=O)c2ccc(C(=O)c3ccccc3)o2)c1		inconclusive: -31.2% [inhibitor]
O=C1CCCC(O)=C1N=Nc1cccc(C(=O)O)c1	inactive	
C=CCc1ccc(OCCCCN2CCC(C)CC2)c(OC)c1	inconclusive: 32.6 µM [inhibitor, single point]	
CCN(CCCNC(=O)c1cc2c(=O)n(C)c3ccccc3c2s1)Cc1ccccc1	active: 14.6 µM	
CCOc1ccc(N(CC(=O)NCc2ccco2)C(=O)CCC(=O)Nc2nccs2)cc1	inactive	
CC1CCc2sc3ncn4nc(C(=O)NCc5ccco5)nc4c3c2C1 (centres undefined)	inconclusive: 6.51 µM [inhibitor, partial curve]	
O=C(Nc1nnc(SCC(=O)N2CCCCC2)s1)c1ccccc1F	inconclusive: 0.231 µM [inhibitor, full curve, poor fit]	
Cc1cc2ncn(CCCCOc3ccccc3)c2cc1C	inconclusive: 25.9 µM [inhibitor, single point] and inconclusive: 20.6 µM [inhibitor, single point]	
COC(=O)[C@@]12C[C@@H](CC(=O)NCc3cccs3)C(=O)N(CCc3ccc(OC)c(OC)c3)C1=CCC(C)(C)C2	active: 20.6 µM	
CCCCN(CCCC)S(=O)(=O)c1ccc(C(=O)Nc2nnc(COC)o2)cc1	active: 18.4 µM	
CCOC(=O)[C@@H]1[C@H]2COc3ccccc3[C@@H]2N2C(=O)N(c3cccc(Cl)c3)C(=O)[C@]12C	inconclusive: 20.6 µM [inhibitor, partial curve]	
COc1cccc(-c2c(C(=O)N/N=C(\C)c3cccs3)nnn2-c2nonc2N)c1	active: 16.4 µM	
COc1cccc(CSc2nnc(C(F)(F)F)n2Cc2ccc(F)cc2)c1	inconclusive: 29.1 µM [inhibitor, partial curve, poor fit]	
CC(C)(C)NC(=O)CC(c1ccccc1)c1ccccc1O (centres undefined)	inactive	
CC(=O)c1ccccc1NC(=O)c1ccc2c(c1)NC(=O)C(C)S2 (centres undefined)	active: 20.6 µM	
C/C(=N\Nc1ccc(C(=O)O)cc1)c1ccc2c(c1)Nc1ccccc1S2	inconclusive: 23.1 µM [inhibitor, single point]	
CCOC(=O)c1cccc(NC(=O)CN2C(=O)c3ccccc3Sc3ncccc32)c1	inconclusive: 23.1 µM [inhibitor, single point]	
COc1ccc(-c2cc3cc(F)ccc3cn2)cc1	inconclusive: 29.1 µM [inhibitor, single point]	

SMILES	Potency	activity change, negative = growth inhibition
CCN(CC)S(=O)(=O)c1ccc2oc(C(=O)NCC3COc4ccccc4O3)c(C)c2c1 (centres undefined)	inconclusive: 23.1 µM [inhibitor, single point]	
COc1cc(-c2nnn(CC(=O)Nc3ccc(OC(F)(F)F)cc3)n2)cc(OC)c1OC	active: 20.6 µM	
CCOC(=O)c1c(C)[nH]c(CCC(=O)Nc2cc(C)ccc2OC)c1C	inconclusive: 16.4 µM [inhibitor, partial curve]	
CCCC(=O)Nc1ccc(N2CCCCC2)cc1	inactive	
CC1CCC(NC(=O)c2ccc3c(c2)N(Cc2ccccc2)C(=O)c2ccccc2S3=O)CC1 (centres undefined)	inconclusive: 16.4 µM [inhibitor, partial curve]	
CN1C[C@@H](CO)O[C@@H](n2cnc3c(N4CCN(CCO)CC4)ncnc32)C1	inactive	
COc1ccc(N=C2NC(=O)/C(=C/c3ccco3)S2)cc1	inconclusive: 25.9 µM [inhibitor, single point]	
CCCCC(=O)N(C)c1c(C)nc2ccc(C(=O)N3CCN(c4ccccc4)CC3)cn12	inactive	
COc1cc(NS(=O)(=O)c2cc(C)ccc2OC)c(OC)cc1Cl	inconclusive: 20.6 µM [inhibitor, single point]	
N#Cc1nc(COc2ccc(Br)cc2)oc1N1CCCCCC1	active: 14.6 µM	
COCCCNC(=O)CN1C(=O)/C(=C\c2ccc(C)cc2)Sc2ccccc21	inconclusive: 29.1 µM [inhibitor, single point]	
Cc1ccc(C(=O)NCc2ccc(N(C)C)cc2)cc1NC(=O)c1nsc2ccccc12	inconclusive: 25.9 µM [inhibitor, single point]	
CCCCN1C(=N)N([C@@H](CN2CCC[C@H]2CN2C(N)=NC[C@@H]2Cc2ccccc2)C(C)C)C[C@H]1Cc1ccccc1	inconclusive: 29.1 µM [inhibitor, single point]	
O=C(Nc1cc(Br)ccc1O)C1CC(c2c(F)cccc2Cl)=NO1 (centres undefined)	inconclusive: 23.1 µM [inhibitor, single point]	
CN(CC(=O)Nc1ccc(Cl)c(C(F)(F)F)c1)C(=O)c1ccc(S(=O)(=O)N2CCOCC2)cc1	active: 4.61 µM	
Cc1ccc(CNC(=O)COC(=O)c2cc(=O)[nH]c3ccccc23)cc1	inactive	
COc1ccc(-c2nc(CS(=O)CC(=O)NCc3ccc(C)cc3)c(C)o2)cc1OC (centres undefined)	inconclusive: 23.1 µM [inhibitor, single point]	
O=C(NCC1CCCN1S(=O)(=O)c1ccccc1)C(=O)NC1CC1 (centres undefined)	inactive	
CCn1c(=NC(=O)c2cccc(N3C(=O)CCC3=O)c2)sc2c(OC)ccc(OC)c21	inactive	
Cc1ccc(OCC(O)CN2CCN(CC(O)COC(C)C)CC2)c(C(C)(C)C)c1 (centres undefined)	inconclusive: 35.5 µM [inhibitor, single point]	
C/C=C/c1cccc(-c2nc(C(=O)NC3CCC3)cc3c2[C@H](CCO)N(S(=O)C(C)(C)C)C3)c1 (some centres undefined)	inconclusive: 16.4 µM [inhibitor, single point]	
Cc1ccc(S(=O)(=O)N2CCN(C(=O)CSc3ncn[nH]3)CC2)c(C)c1	inconclusive: 23.1 µM [inhibitor, single point]	
CCOc1ccc2c(c1)S/C(=C\c1cccs1)C(=O)N2	inconclusive: 32.6 µM [inhibitor, partial curve, poor fit]	
